Assay results reported in PubChem BioAssay AID1345083 (National Center for Advancing Translational Sciences (NCATS), 2018).
Where “and” joins values, the source holds several entries; their conditions need not be identical. Identical values can stand only once. Out of some 94,000 compounds screened, about 6,200 (6.6%) were called active. Inconclusive means that the source gave no clear call. Such entries were picked first, then a sample of the others. Calls come from the whole dose curve; as a rule, active = well fitted inhibition curve with a large enough effect; inconclusive = small, poorly fitted or top-dose-only effect; inactive = flat fitted curve, though single readings scatter. A potency beside an inconclusive call is a rough fit, not a confirmed value.

test: Cytotoxic Profiling in HEK 293 Cell Line of Diverse Libraries Using Quantitative High-Throughput Screening; settings: HEK 293 viability, ATP luminescence (CellTiter-Glo), 48-72 h; activity change, negative = cytotoxicity: at 115 µM (top of the series) unless noted; series mostly up to 115 µM; note: nearly all actives have a fitted effect of over 60% in size
Summary of the method: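 ATP-coupled CellTiter-Glo luminescence served as viability read-out, recorded 10 min after reagent addition at room temperature. HEK 293 cells, 250 cells/well, had been incubated with pintool-transferred compound for 48 or 72 hr at 37 degree Celsius.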
% is set by controls: 0 for no effect and ±100 for the full control effect; potency is the fitted concentration of half-maximal effect; tags give direction and shape of the fitted curve.

SMILES | Potency | activity change, negative = cytotoxicity | outcome
O=[S+]([O-])(c1cccnc1)c1nnn2c1nc(N1CCCCC1)c1ccccc12 | inconclusive: 79.4 µM [inhibitor, partial curve] |  | 
CC(C)(C)C(=O)N[C@H]1C[C@@H](Cc2cc(CN3CCN(c4ccccc4)CC3)on2)C1(C)C | inconclusive: 12.6 µM [inhibitor, partial curve, poor fit] |  | 
Cc1cnc(C(=O)N[C@@H]2CCC[C@@H]2C(=O)NCCc2ccccc2)cn1 |  | inactive: 0.103% | 
CCOc1ccc(-c2cc3c(=O)n(CCNC(=O)c4cccc(C#N)c4)ccn3n2)cc1 |  | inactive: 2.32% | 
O=C1COCCN1c1cc(-c2cccc(F)c2)cn2cncc12 |  | inactive: -11% [at 172 µM] | 
Cc1ccc(CCN2CCC3(Cc4ccccc4CNC3=O)C2)cc1 (stereo unspecified) |  | inactive: -27.7% | 
Cc1ocnc1C(=O)N(C)CC1CCCN(CCc2ccc(Cl)cc2)C1 (stereo unspecified) | inconclusive: 50.1 µM [inhibitor, partial curve, poor fit] |  | 
CN1CCOc2c(C(=O)NCc3cccnc3)cc(-c3ccccc3F)cc21 | active: 100 µM |  | 
COc1cccc(NC(=O)c2cnc3c(c2)N(Cc2ccccc2)CCC3)c1 | inconclusive: 35.5 µM [inhibitor, full curve, poor fit] |  | 
COCCCNC(=O)c1c(C)noc1-c1cc(OC)cc(OC)c1 |  | inactive: -20.1% | 
CC1=NS(=O)(=O)N(Cc2ccccc2)C=C1C(=O)OCc1nc(-c2ccc(Cl)cc2)no1 | inconclusive: 39.8 µM [inhibitor, partial curve, poor fit] |  | 
Cc1nc(NCCc2nccc(-c3ccccc3)n2)cc(C2CC(O)C2)n1 (stereo unspecified) | inconclusive: 50.1 µM [inhibitor, partial curve, poor fit] |  | 
O=C(c1ccc(OC2CCN(C(=O)c3cccc(Cl)c3)CC2)nc1)N1CCOCC1 |  | inactive: -25% | 
COCCN1C(=O)c2cccn2CC1CNC(=O)c1ccc2ccccc2n1 (stereo unspecified) | inconclusive: 79.4 µM [inhibitor, single point] |  | 
CC(=O)Nc1ccc(NC(=O)CCNc2c(-c3ccc(F)cc3)nc3cnccn23)cc1 | inconclusive: 89.1 µM [inhibitor, partial curve, poor fit] |  | 
CCc1nnc(CN2CCC(N3CCCC(C(=O)NCc4ccccn4)C3)CC2)o1 (stereo unspecified) |  | inactive: -12.7% | 
CNC(=O)c1noc(CN2CCCC(CCc3c(F)cccc3F)C2)n1 (stereo unspecified) | inconclusive: 50.1 µM [inhibitor, partial curve, poor fit] |  | 
O=C(c1cccc2[nH]ccc12)N1CCC2(CC1)CC(Cc1ccc(F)cc1)CCO2 (stereo unspecified) | inconclusive: 56.2 µM [inhibitor, partial curve, poor fit] |  | 
O=C(NCc1ccccc1Cl)c1noc(-c2ccc3c(c2)OCO3)n1 | inconclusive: 79.4 µM [inhibitor, single point] |  | 
COc1cccc(Nc2ccc3c(n2)C(C)(C(=O)NCCc2cnc[nH]2)CN(C)C3)c1 (stereo unspecified) | inconclusive: 112 µM [inhibitor, partial curve] |  | 
Cc1nn(-c2ccccc2)c2c1C(C(C)C)N(C1CCN(C(=O)c3ccccc3F)CC1)C2=O (stereo unspecified) | active: 44.7 µM |  | 
CN(C(=O)c1ccc2ccccc2n1)C1CCc2nn(CC3CC3)c(=O)n2CC1 (stereo unspecified) |  | inactive: 4.27% | 

SMILES | Potency | activity change, negative = cytotoxicity | outcome
Cc1ccccc1CCC1CCCN(C(=O)CCc2ccncc2)C1 (stereo unspecified) | inconclusive: 15.8 µM [inhibitor, partial curve, poor fit] |  | 
O=C(Cc1cccs1)N1CCC2(CC1)N=C(c1ccc(Cl)cc1)NO2 | inconclusive: 50.1 µM [inhibitor, partial curve, poor fit] |  | 
CN(Cc1ccccc1)C(=O)c1ccc2c(c1)NC(C)(CNCc1ccccc1)CO2 (stereo unspecified) | inconclusive: 126 µM [inhibitor, single point] |  | 
O=C(Cn1c(=O)oc2ccccc21)N1CCCC(Cc2noc(-c3ccccc3)n2)C1 (stereo unspecified) | inconclusive: 50.1 µM [inhibitor, partial curve, poor fit] |  | 
O=[S+]1([O-])NCC2(CCCN(Cc3c(F)cccc3Cl)C2)Oc2ncccc21 (stereo unspecified) |  | inactive: -7.26% | 
O=C(c1ccc(C2CCNC2)cc1)N(Cc1ccccc1)CC1CCC1 (stereo unspecified) | active: 25.1 µM |  | 
CN(Cc1nccn1C)C(=O)c1csc2nc(-c3ccc(C(F)(F)F)cc3)cn12 | active: 39.8 µM |  | 
O=C(NCc1ccc(F)cc1)c1nc2cccnc2n(CCc2ccccc2)c1=O | inconclusive: 89.1 µM [inhibitor, single point] |  | 
COc1ccc(-c2cc(N3CCCC(NC(=O)c4cc5ccccc5[nH]4)C3)n[nH]2)cc1 (stereo unspecified) | inconclusive: 39.8 µM [inhibitor, partial curve, poor fit] |  | 
Cc1ncc(CN2CCCC2C(=O)Nc2ccc(-c3cccc(F)c3)cc2)n1C (stereo unspecified) | active: 20 µM |  | 
COCCOC1CCOC2(CCN(C(=O)Nc3ccc(OC)cc3)CC2)C1 (stereo unspecified) |  | inactive: -8.5% | 
COc1ccc(Cn2c(C3CCN(C(=O)c4cc(C)cc(C)c4)CC3)n[nH]c2=O)cc1 |  | inactive: -1.9% | 
COCCN1CCC2(C1)CN(C)c1ccc(C(=O)NCc3ccccc3)cc12 (stereo unspecified) | inconclusive: 126 µM [inhibitor, single point] |  | 
Cc1noc(C)c1C(=O)N1CC(CN2C(=O)c3c(c(C)nn3-c3ccccc3)C2C2CC2)C1 (stereo unspecified) | inconclusive: 63.1 µM [inhibitor, partial curve, poor fit] |  | 
CN1CC2(CCN(c3ccc(C#N)cn3)CC2)CC(c2ccccc2)C1=O (stereo unspecified) | inconclusive: 89.1 µM [inhibitor, single point] |  | 
CCOC(=O)C(C)Oc1cccn2c(=O)c(-c3cc(C)n(-c4ccc(Cl)cc4)n3)c(C)nc12 (stereo unspecified) | inconclusive: 79.4 µM [inhibitor, single point] |  | 
COc1ccc(C2Cn3nnc(C(=O)N4CCC(C(=O)Nc5cc(C)cc(C)c5)CC4)c3CO2)cc1 (stereo unspecified) | active: 35.5 µM |  | 
COCCNC(=O)c1cc2n(n1)CC(c1ccc(Br)cc1)OC2 (stereo unspecified) | inconclusive: 50.1 µM [inhibitor, partial curve, poor fit] |  | 
CC(C)CCN1CCCN(CCN(C)C)c2ccccc21 | inconclusive: 50.1 µM [inhibitor, partial curve, poor fit] |  | 
CSc1cccc(NC(=O)c2cc3c(N4CCSCC4)nc(C)cn3n2)c1 | inconclusive: 25.1 µM [inhibitor, full curve] |  | 
CCn1ncc(N2CCCC(CC(=O)NCc3ccccc3)C2)cc1=O (stereo unspecified) | inconclusive: 70.8 µM [inhibitor, partial curve, poor fit] |  | 
CCNC(=O)C1C(c2cccc(NC(=O)c3ccc(OC)cc3)c2)OC(=O)N1Cc1ccc(C)cc1 (stereo unspecified) | inconclusive: 50.1 µM [inhibitor, partial curve, poor fit] |  | 

SMILES | Potency | activity change, negative = cytotoxicity | outcome
CN(Cc1cccc2cnccc12)C(=O)c1cc(COc2ccccc2F)[nH]n1 | inconclusive: 50.1 µM [inhibitor, partial curve, poor fit] |  | 
CN(C)C[C@@H]1CN(Cc2ccncc2)C[C@H]1NC(=O)NCc1ccccc1 | inconclusive: 100 µM [inhibitor, single point] |  | 
CC(C)(C)n1c(=O)[nH]c2cccnc21 |  | inactive: 2.82% [at 230 µM] | 
CC(C)Cc1ccc(CN2CCC3(CC2)Cc2ccccc2CNC3=O)cc1 | active: 22.4 µM |  | 
CC(NC(=O)COc1ccc(F)cc1F)c1ccccc1-n1cccn1 (stereo unspecified) |  | inactive: -14.2% | 
Cc1cc2nc(CO[C@H]3CN(Cc4ccc(S(C)(=O)=O)cc4)C[C@H]3F)[nH]c2cc1C | inconclusive: 70.8 µM [inhibitor, full curve, poor fit] |  | 
CCc1ccc(CN2CCC(Oc3ccc4ccccc4c3)(C(=O)O)CC2)nc1 |  |  | inactive
N#Cc1cccnc1N1CCN(c2nccc(CCC(F)(F)F)n2)CC1 | inconclusive: 56.2 µM [inhibitor, partial curve, poor fit] |  | 
N#Cc1cccc(CN2CC(COc3ccccc3)C3(C2)CN(c2ccccc2)C3)c1 (stereo unspecified) | inconclusive: 70.8 µM [inhibitor, partial curve] |  | 
CCNC(=O)N1CCOc2ccc(CCC(=O)NCC3CC3)cc2C1 |  | inactive: -19.1% | 
Cc1nc([C@H]2CCN(Cc3cccc(OC(F)(F)F)c3)C[C@H]2NC(=O)C2CC2)n[nH]1 | inconclusive: 89.1 µM [inhibitor, single point] |  | 
O=C(NCC(F)F)c1nc2cccnc2n(C2CC2)c1=O | inactive and inconclusive: 126 µM [inhibitor, partial curve, poor fit] |  | 
COc1cccc(CN2CCN(c3nc4c(s3)c(C)nn4C)CC2=O)c1 | inconclusive: 56.2 µM [inhibitor, partial curve, poor fit] |  | 
Cc1noc(C)c1[S+](=O)([O-])NC1CCCN(CCn2nc3n(c2=O)CCCC3)C1 (stereo unspecified) |  | inactive: 1.49% | 
Cc1noc2c(N(C)C)cc(-c3cccc(C(F)(F)F)c3)nc12 |  | inactive: -12.9% [at 172 µM] | 
CNC(=O)[C@H]1C[C@]2(CCCCN(C)C2=O)N(C(C)=O)[C@H]1c1ccco1 | inconclusive: 89.1 µM [inhibitor, single point] |  | 
CC1Oc2ccc(NC(=O)CC(C)(C)C)cc2CN(CCc2ccccc2)C1=O (stereo unspecified) | inconclusive: 35.5 µM [inhibitor, partial curve, poor fit] |  | 
Cc1nc2c(c(-c3ccc(Cl)cc3)n1)CCN([S+](=O)([O-])c1cccc(C(F)(F)F)c1)CC2 |  | inactive: -25% | 
Cc1ccncc1-c1c(C)nn2c1N(Cc1cccc(OC(F)(F)F)c1)CCC2 | active: 31.6 µM |  | 
Cc1cc(=O)n(CC(=O)Nc2ccc(F)cc2)c(N2CCC(C)CC2)n1 | inconclusive: 50.1 µM [inhibitor, partial curve, poor fit] |  | 
Cc1nnc2ccc(N3CCC(NC(=O)c4ccccc4)C3)nn12 (stereo unspecified) |  | inactive: -11.8% [at 172 µM] | 
Cc1ccc(-c2nc(C3CC(=O)N(C4CCCCC4)C3)no2)cc1 (stereo unspecified) | inconclusive: 50.1 µM [inhibitor, partial curve, poor fit] |  | 
